Over roughly 33,000 sequences, “E-score (-0.5 to 0.5)” has its median near -0.035; the highest 2% begin near 0.35. Some of the results follow.

This assay deals with T1, Pdr3 (UniProt P33200).
T1 sequence: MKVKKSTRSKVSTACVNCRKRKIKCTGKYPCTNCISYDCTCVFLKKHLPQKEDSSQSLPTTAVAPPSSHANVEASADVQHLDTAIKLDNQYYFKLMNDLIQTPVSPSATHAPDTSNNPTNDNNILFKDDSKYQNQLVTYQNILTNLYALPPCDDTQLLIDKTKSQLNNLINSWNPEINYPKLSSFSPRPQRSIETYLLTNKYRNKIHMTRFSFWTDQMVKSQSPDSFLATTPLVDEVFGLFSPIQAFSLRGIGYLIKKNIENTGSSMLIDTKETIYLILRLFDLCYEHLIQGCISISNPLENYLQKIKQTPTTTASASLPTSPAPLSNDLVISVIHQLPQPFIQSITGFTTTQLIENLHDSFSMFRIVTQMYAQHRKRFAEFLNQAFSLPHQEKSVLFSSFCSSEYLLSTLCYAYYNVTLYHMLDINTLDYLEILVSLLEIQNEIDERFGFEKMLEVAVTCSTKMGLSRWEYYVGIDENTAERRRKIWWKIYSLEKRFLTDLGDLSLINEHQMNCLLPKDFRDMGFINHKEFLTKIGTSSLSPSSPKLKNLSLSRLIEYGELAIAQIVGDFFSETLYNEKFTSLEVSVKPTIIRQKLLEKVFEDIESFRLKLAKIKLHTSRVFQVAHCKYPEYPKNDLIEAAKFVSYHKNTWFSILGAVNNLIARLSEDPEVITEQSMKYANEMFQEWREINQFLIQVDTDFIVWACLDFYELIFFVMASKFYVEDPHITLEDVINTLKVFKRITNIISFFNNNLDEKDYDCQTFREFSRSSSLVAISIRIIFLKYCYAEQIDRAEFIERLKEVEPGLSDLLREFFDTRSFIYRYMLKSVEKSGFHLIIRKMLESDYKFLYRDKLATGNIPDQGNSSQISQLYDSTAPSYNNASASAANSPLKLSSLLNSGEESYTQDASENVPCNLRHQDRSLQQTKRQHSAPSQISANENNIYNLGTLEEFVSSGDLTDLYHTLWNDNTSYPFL
Briefly: PBM E-score (8-mer binding enrichment) (E-score (-0.5 to 0.5)); higher = stronger / more preferred TF binding; most listed sequences are background and not binding sites. As to conditions: protein concentration: 200 nM; construct: GST-full length. How it is done:
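Universal 'all 10-mer' protein binding microarrays (Agilent AMADID 015681) probed with GST-tagged S. cerevisiae TFs (full-length or DBD) made by in vitro transcription/translation (PURExpress), about 100-200 nM. Bound TF was detected with fluorescent anti-GST. Each ungapped 8-mer (which stands for itself and its reverse complement) is scored by the PBM enrichment score (E-score), a modified Wilcoxon-Mann-Whitney statistic from -0.5 to +0.5, computed with the Universal PBM Analysis Suite. Scale: above 0.35 generally sequence-specific binding.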
Consider CGTTGTAA, for which the “PBM E-score” value is -0.0759.

In the case of ACCCTGGC, the “PBM E-score” value was -0.137.

As to GTAAGATA, the “PBM E-score” value was found to be 0.0502.

For the sequence ATATGGTA, the “PBM E-score” value is 0.0282.

On to AACGTAGT, for which the “PBM E-score” value was -0.185.

On to CACATTGA, for which the “PBM E-score” value was determined as 0.0119.

Regarding GGACGAAC, the “PBM E-score” value amounted to 0.232.

For the sequence CCGAATAC, the “PBM E-score” value came out at 0.27.

As to AAATAATG, the “PBM E-score” value amounted to 0.104.

Turning to CAACTTTA, the “PBM E-score” value was -0.0602.

GAAACGGC: the “PBM E-score” value amounted to 0.202.

CCAAGCAC: the “PBM E-score” value was -0.165.

As for GCCCGAGA, the “PBM E-score” value worked out at 0.236.

On to GATCACAA, for which the “PBM E-score” value was 0.0256.

As to ATATACAA, the “PBM E-score” value is 0.113.

In the case of TATCAAAA, the “PBM E-score” value is -0.111.

With ACTACATC, the “PBM E-score” value is -0.0573.

As for CTCGTCAC, the “PBM E-score” value was found to be 0.0572.

As to CCTCTTGA, the “PBM E-score” value is -0.243.

On to GGCCTGTA, for which the “PBM E-score” value is -0.0559.

As to GTGGGGAA, the “PBM E-score” value stood at 0.094.

As for AAGGCCAT, the “PBM E-score” value came to 0.0255.

Consider CTGCGCAC, for which the “PBM E-score” value turned out to be 0.0573.

Turning to GTGTGTAA, the “PBM E-score” value is -0.064.

With AGAACCAC, the “PBM E-score” value was -0.101.

Consider ACGATCGT, for which the “PBM E-score” value amounted to 0.0151.

On to CTCAATTC, for which the “PBM E-score” value was 0.00542.

With CTCACGAG, the “PBM E-score” value was -0.195.

As for AGAGGTTC, the “PBM E-score” value was 0.179.

Regarding ATCATGCA, the “PBM E-score” value is -0.167.

Take GGTGTTAA: the “PBM E-score” value is -0.0241.

Regarding GCCGGTCA, the “PBM E-score” value is 0.0765.

Turning to GCGAAACA, the “PBM E-score” value was determined as 0.0684.

As to ACCATTGC, the “PBM E-score” value was -0.0273.

As for CGAGTTAC, the “PBM E-score” value was 0.105.

With GTACGGAA, the “PBM E-score” value turned out to be 0.402.

Regarding AGACTGTG, the “PBM E-score” value is -0.235.

Regarding ATATCCGC, the “PBM E-score” value was 0.333.

As for CAAAAAGG, the “PBM E-score” value is -0.185.

For the sequence AGTTGTTC, the “PBM E-score” value was 0.0285.

For the sequence CTAATGTC, the “PBM E-score” value was -0.0252.

TACCCGTA: the “PBM E-score” value came out at 0.0329.

On to CTCCTACC, for which the “PBM E-score” value is -0.0881.

As to ATATCGGA, the “PBM E-score” value turned out to be 0.352.

As for CAGCCTGG, the “PBM E-score” value is -0.2.

With CGCGTAAC, the “PBM E-score” value is -0.0838.

For the sequence ATTAAAGC, the “PBM E-score” value is -0.0878.

Regarding CAGCGCTC, the “PBM E-score” value is -0.0123.

As to TCACTCCA, the “PBM E-score” value came out at 0.00763.

For CGGTCAGA, the “PBM E-score” value worked out at 0.111.

Regarding CTTCGCGA, the “PBM E-score” value amounted to 0.126.

Take AAAAGGGT: the “PBM E-score” value was -0.111.

Consider TCGGATAA, for which the “PBM E-score” value is 0.307.

Take TCTTATAA: the “PBM E-score” value turned out to be 0.0994.

Regarding ATCGCCGA, the “PBM E-score” value amounted to 0.154.

On to AGTCCCCA, for which the “PBM E-score” value was -0.213.

Take ATCAGCCA: the “PBM E-score” value is -0.0047.

Take TACGGGGA: the “PBM E-score” value is 0.149.

As for AGGCCATC, the “PBM E-score” value was -0.00459.

For the sequence TCAGGTAA, the “PBM E-score” value is -0.212.

For the sequence AGCAGTTC, the “PBM E-score” value was -0.0749.

As to AAATGGAC, the “PBM E-score” value was 0.0692.

Take CGTTATAA: the “PBM E-score” value came out at 0.135.

Consider ACGCGGTA, for which the “PBM E-score” value stood at 0.0327.

On to GTTCAGTA, for which the “PBM E-score” value was -0.125.

Regarding GCATATAC, the “PBM E-score” value is -0.0441.

For CCGGTGCC, the “PBM E-score” value is 0.18.

Regarding ACCTAGCC, the “PBM E-score” value was -0.131.

In the case of AGGCTGTG, the “PBM E-score” value is -0.272.

Regarding AACCCGGA, the “PBM E-score” value was 0.384.

ATGCCATC: the “PBM E-score” value was 0.12.

With AAAGATTT, the “PBM E-score” value was determined as 0.0656.

As to CATTCGCC, the “PBM E-score” value was 0.0646.

Turning to CGTTATCC, the “PBM E-score” value came to 0.0835.

In the case of AACAGACC, the “PBM E-score” value was determined as 0.0845.

For the sequence CAACTCTG, the “PBM E-score” value was -0.0464.

As for CTCGGATC, the “PBM E-score” value was 0.386.

Take CCTGACCG: the “PBM E-score” value was -0.0695.

On to CACAACAC, for which the “PBM E-score” value is -0.116.

Turning to CAGTCCGG, the “PBM E-score” value amounted to 0.217.

On to ATTGCTCC, for which the “PBM E-score” value turned out to be 0.0646.

In the case of CTCCATTC, the “PBM E-score” value is -0.0497.

On to CACAGTAC, for which the “PBM E-score” value is -0.0825.

As for CTACGGTC, the “PBM E-score” value was -0.066.

Regarding AAATCATT, the “PBM E-score” value was -0.104.

As to CCCTTTTC, the “PBM E-score” value is -0.0561.

The values above are taken from the supplement of paper PMC3334620.
